# Laboratory results taken from the supplement of paper PMC9446081.
# The campaign covered roughly 39,000 compounds. About 220 (0.56%) showed activity. The list shows a part of the results.
# Test system: Escherichia coli K-12 BW25113
# Test: relative growth (OD600 normalised to plate interquartile mean) (fraction); higher = less growth inhibition, active = 0.2 or less
# Details: 50 µM; LB; incubation time: overnight (16-24 h)
# 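Also: static incubation at 37 °C against the wild-type strain, values averaged over two biological replicates.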
row,SMILES,relative growth
1,CC(C)NC(=O)Nc1cccc2c1O[C@@H](CN(C)Cc1ccc3c(c1)OCO3)[C@@H](C)CN([C@@H](C)CO)C2=O,inactive: 1.01
2,COc1ccc([Si](C)(C)[C@H]2[C@H](CC(=O)N(CCO)Cc3ccccc3)O[C@@]3(C(=O)N(Cc4cccc(N5CCC5=O)c4)c4ccccc43)[C@@H]2C)cc1,inactive: 1.02
3,C[C@H]1CCCCO[C@@H](CN(C)S(=O)(=O)c2ccc(Cl)cc2)[C@@H](C)CN([C@@H](C)CO)C(=O)c2cc(NC(=O)NC3CCCCC3)ccc2O1,inactive: 1
4,COC(=O)[C@@H](N)Cc1ccc(O)c(O)c1,inactive: 0.974
5,C[C@@H]1CCCCO[C@H](CN(C)C(=O)NC2CCCCC2)[C@H](C)CN([C@@H](C)CO)C(=O)c2cc(NC(=O)Cc3ccccc3)ccc2O1,inactive: 0.97
6,COCC#Cc1ccc2c(c1)O[C@H](CN(C)S(C)(=O)=O)[C@@H](C)CN([C@H](C)CO)S2(=O)=O,inactive: 0.982
7,CC(C)(C)N1C[C@H](C(=O)O)CC1=O,inactive: 1
8,Cc1ccc(-c2ccc3c(c2)O[C@H](CN(C)C(=O)Nc2ccc(C(F)(F)F)cc2)[C@H](C)CN([C@H](C)CO)S3(=O)=O)cc1,inactive: 0.94
9,Cc1ccc(S(=O)(=O)Nc2ccc3c(c2)C(=O)N([C@@H](C)CO)C[C@@H](C)[C@@H](CN(C)S(=O)(=O)c2ccc(Cl)cc2)OCCCC[C@@H](C)O3)cc1,inactive: 1.04
10,C[C@H]1CCCCO[C@H](CN(C)S(=O)(=O)c2cn(C)cn2)[C@@H](C)CN([C@@H](C)CO)C(=O)c2cc(NS(=O)(=O)c3cn(C)cn3)ccc2O1,inactive: 0.995
11,O=C(O[C@@H]1O[C@@H]2COC(=O)c3cc(Oc4c(C(=O)O)cc(O)c(O)c4O)c(O)c(O)c3-c3c(cc(O)c(O)c3O)C(=O)O[C@H]2[C@H](OC(=O)c2cc(O)c(O)c(O)c2)[C@H]1OC(=O)c1cc(O)c(O)c(O)c1)c1cc(O)c(O)c(O)c1,inactive: 0.558
12,COc1cc(NC(=O)c2cccc(-n3cc(NC(=O)Nc4cccc(C)c4)cn3)c2)cc(OC)c1OC,inactive: 0.982
13,CC(C)[Si]1(C(C)C)OCc2cc(-c3ccc(-c4ccc(Cl)c(Cl)c4)o3)nc(-c3ccc(Oc4ccccc4)cc3)c21,inactive: 1
14,C[C@@H]1CN([C@@H](C)CO)C(=O)c2c(c3ccccc3n2C)-c2ccccc2CO[C@@H]1CN(C)Cc1ccccc1,inactive: 0.997
15,CC(C)C(=O)NCc1nccc(N(C)C)n1,inactive: 1.03
16,C[C@@H]1CN([C@@H](C)CO)C(=O)CCCn2cc(nn2)CO[C@@H]1CN(C)C(=O)Nc1ccccc1C(F)(F)F,inactive: 1.01
17,C[C@@H]1CN([C@H](C)CO)C(=O)c2cc(NS(=O)(=O)c3cccs3)ccc2O[C@@H](C)CCCCO[C@@H]1CN(C)C(=O)CCC(F)(F)F,inactive: 0.986
18,CNC(=O)C[C@H]1C[C@@H]2CN(S(=O)(=O)c3cccnc3)C[C@@H]2O1,inactive: 0.995
19,CC(C)NC(=O)N(C)C[C@H]1OCCCC[C@H](C)Oc2ccc(NC(=O)Nc3ccc(C(F)(F)F)cc3)cc2C(=O)N([C@H](C)CO)C[C@H]1C,inactive: 1.02
20,C[C@@H]1CN([C@H](C)CO)C(=O)c2cccc(NC(=O)c3ccc(-c4nccs4)cc3)c2O[C@H]1CN(C)C(=O)Nc1ccc(C(F)(F)F)cc1,inactive: 0.847

row,SMILES,relative growth
1,COc1ccc(S(=O)(=O)N(C)C[C@@H]2Oc3ccc(NC(=O)NC(C)C)cc3CC(=O)N([C@@H](C)CO)C[C@@H]2C)cc1,inactive: 1.01
2,CC(C)CC#Cc1ccc2c(c1)O[C@@H](CN(C)C(=O)c1cnccn1)[C@@H](C)CN([C@@H](C)CO)S2(=O)=O,inactive: 1.01
3,O=S(=O)(NCC[C@@H]1CC[C@@H](NS(=O)(=O)c2cccc(Cl)c2)[C@@H](CO)O1)c1cccc(F)c1,inactive: 1.01
4,COCC#Cc1cnc2c(c1)C(=O)N([C@H](C)CO)C[C@H](C)[C@@H](CN(C)C(=O)CN1CCOCC1)O2,inactive: 1
5,Cc1noc(C)c1S(=O)(=O)Nc1ccc2c(c1)C(=O)N([C@@H](C)CO)C[C@@H](C)[C@H](CN(C)S(=O)(=O)c1ccc(Cl)cc1)O2,inactive: 0.995
6,CCOC(=O)C(CCc1ccccc1)NC(C)C(=O)N1CCCC1C(=O)O.O=C(O)C=CC(=O)O (stereo not given),inactive: 1.07
7,CCOc1cc(CC(=O)NC(CC(C)C)c2ccccc2N2CCCCC2)ccc1C(=O)O (stereo not given),inactive: 0.844
8,CCS(=O)(=O)Nc1ccc2c(c1)C(=O)N(C)[C@H]1CC[C@H](CC(=O)N3CCN(C)CC3)O[C@H]1CO2,inactive: 1.01
9,CCc1nc(C(N)=O)c(Nc2ccc(N3CCC(N4CCN(C)CC4)CC3)c(OC)c2)nc1NC1CCOCC1,inactive: 0.995
10,Cc1noc(C)c1NC(=O)Nc1ccc2c(c1)C(=O)N([C@H](C)CO)C[C@@H](C)[C@H](CN(C)C(=O)Nc1ccc(C(F)(F)F)cc1)OCCCC[C@@H](C)O2,inactive: 1.02
11,O=C(NCc1ccc(F)cc1)[C@@H]1[C@@H](CO)[C@@H]2Cn3c(cccc3=O)[C@H]1N2C(=O)c1cnccn1,inactive: 1.01
12,C[C@H]1CN([C@@H](C)CO)C(=O)Cc2cc(NC(=O)CCN3CCOCC3)ccc2O[C@@H]1CN(C)CC1CC1,inactive: 1
13,Cc1noc(C)c1NC(=O)N(C)C[C@H]1Oc2ccc(NC(=O)Nc3ccc(C(F)(F)F)cc3)cc2CC(=O)N([C@H](C)CO)C[C@@H]1C,inactive: 1.01
14,Cc1ccc(S(=O)(=O)N(C)C[C@@H]2Oc3ccc(NS(C)(=O)=O)cc3CC(=O)N([C@H](C)CO)C[C@@H]2C)cc1,inactive: 0.998
15,c1cc(CN2CCCNCCNCCCNCC2)ccc1CN1CCCNCCNCCCNCC1,inactive: 0.851
16,C[C@@H]1CN([C@H](C)CO)C(=O)CCCn2nncc2CO[C@H]1CN(C)C(=O)Nc1cccc(C(F)(F)F)c1,inactive: 0.974
17,O=C(C[C@H]1CC[C@@H]2[C@H](COC[C@H](O)CN2C(=O)Nc2ccc(Cl)cc2)O1)NC1Cc2ccccc2C1,inactive: 0.957
18,COc1ccc(S(=O)(=O)N(C)C[C@@H]2Oc3ccc(NC(=O)Cc4ccccc4)cc3CC(=O)N([C@H](C)CO)C[C@H]2C)cc1,inactive: 1
19,CC(=O)N1CC(=O)N(c2cnn(C)c2)C[C@]12CCN(C(=O)N(C)C)C2,inactive: 1.01
20,O=C(C[C@@H]1C[C@@H]2c3cc(NS(=O)(=O)c4ccc(F)cc4)ccc3O[C@@H]2[C@@H](CO)O1)NCc1ccc(Oc2ccccc2)cc1,inactive: 0.998

row,SMILES,relative growth
1,Cc1noc(C)c1S(=O)(=O)N(C)C[C@@H]1Oc2ccc(NC(=O)NC(C)C)cc2CC(=O)N([C@@H](C)CO)C[C@H]1C,inactive: 1
2,O=C(Oc1ccccc1C(=O)O)c1ccccc1O,inactive: 1.04
3,NC(=CS(=O)(=O)Cc1ccc(F)cc1)NO,inactive: 1.01
4,Cc1noc(C)c1S(=O)(=O)Nc1ccc2c(c1)C(=O)N([C@@H](C)CO)C[C@@H](C)[C@H](CN(C)C(=O)Nc1ccc(C(F)(F)F)cc1)OCCCC[C@H](C)O2,inactive: 0.935
5,Cc1ccc(S(=O)(=O)Nc2ccc3c(c2)C(=O)N([C@H](C)CO)C[C@H](C)[C@@H](CN(C)S(C)(=O)=O)OCCCC[C@@H](C)O3)cc1,inactive: 1.03
6,C[C@H](CO)N1C[C@H](C)[C@H](CN(C)C(=O)Nc2ccc(F)cc2)Oc2ccc(NC(=O)C3CC3)cc2CC1=O,inactive: 0.993
7,CCN1[C@@H]2O[C@@H]3O[C@H]4[C@H](O[C@H]3O[C@@H]2N(CC)S1(=O)=O)N(CC)S(=O)(=O)N4CC,inactive: 0.99
8,C[C@H](CO)N1C[C@H](C)[C@H](CN(C)Cc2ccc(Oc3ccccc3)cc2)Oc2ccc(NC(=O)Cc3ccccc3)cc2C1=O,inactive: 0.99
9,O=C(O)c1ccc(S(=O)(=O)N(Cl)Cl)cc1,inactive: 1.03
10,C[C@@H]1CN([C@@H](C)CO)C(=O)c2cc(NC(=O)Cc3ccccc3)ccc2O[C@@H]1CN(C)S(=O)(=O)c1ccccc1,inactive: 0.994
11,COc1cc(/C=C/C(=O)N2CCC=CC2=O)cc(OC)c1OC(=O)CCCCCCCCCCC(=O)Oc1c(OC)cc(/C=C/C(=O)N2CCC=CC2=O)cc1OC,inactive: 1.02
12,COc1ccc(NC(=O)Nc2ccc3c(c2)C(=O)N([C@H](C)CO)C[C@H](C)[C@@H](CN(C)S(=O)(=O)c2c(C)noc2C)OCCCC[C@@H](C)O3)cc1,inactive: 1.02
13,O=C(Nc1cccnc1)c1nc2ncccn2n1,inactive: 1.01
14,C[C@@H]1CCCCO[C@@H](CN(C)C(=O)c2ccccc2)[C@H](C)CN([C@@H](C)CO)C(=O)c2cc(NC(=O)C3CCCCC3)ccc2O1,inactive: 0.996
15,C[C@H](CO)N1C[C@H](C)[C@H](CN(C)C(=O)Nc2ccc3c(c2)OCO3)OCCCC[C@H](C)Oc2ccc(NC(=O)Nc3ccc(F)cc3)cc2C1=O,inactive: 1.03
16,CN(C)C(=O)c1ccc(-c2ccc3n(c2=O)C[C@@H]2[C@@H](CO)[C@H](C(=O)NCCc4ccccc4)N[C@H]32)cc1,inactive: 0.982
17,COc1cccc(NC(=O)N2C[C@H](O)COC[C@H]3O[C@@H](CC(=O)NC4Cc5ccccc5C4)CC[C@@H]32)c1,inactive: 1
18,CO[C@H]1CN(C)C(=O)c2cc(NC(=O)c3ccccc3)ccc2OC[C@@H](C)N(C(=O)CN(C)C)C[C@@H]1C,inactive: 0.99
19,C[C@@H]1CN([C@@H](C)CO)C(=O)c2cc(NS(=O)(=O)c3ccc(F)cc3)ccc2O[C@H]1CN(C)Cc1ccc(-c2ccccc2)cc1,inactive: 1.03
20,C[C@@H]1CCCCO[C@H](CN(C)C(=O)Nc2ccc(C(F)(F)F)cc2)[C@@H](C)CN([C@H](C)CO)C(=O)c2cc(NC(=O)CCC(F)(F)F)ccc2O1,inactive: 0.999
